The list shows a part of the results.
What follows are sequences tested on PfHDP1 homeodomain (GST-tagged) (assay: gcPBM binding intensity (ln(normalized median fluorescence intensity)); higher = stronger DNA binding).
Method in brief: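 Alexa488 anti-GST antibody, scanned at 488 nm, detected GST-tagged P. falciparum DNA-binding domains that had been expressed in E. coli and incubated for 1 h on an Agilent 4 × 180k array. The array carried primer-extended double-stranded 36-bp intergenic genomic probes and negative controls. Binding intensity is the highest Masliner-normalised natural-log median intensity across replicate spots of either orientation of each probe.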

| Sequence | gcPBM binding intensity (ln) |
| --- | --- |
| AAAAGAAAATATATGTGTACTAAAATATATATATAT [XGTACX_site3817] | 8.77 |
| ACTTTTATTCGCTTACGTACATATATTATATATTAT [XGTACX_site4459] | 7.73 |
| GTTTATTAAACATTAGTGCAATTTTAATCCATTCTA | 8.94 |
| TTTAAAGTAATAAAGTGTACAAAAATAAATTCAGCT [XGTACX_site8651] | 7.04 |
| TACCTACACTTTTGGAGTACAATTAAAAAAAAAAAA [XGTACX_site1403] | 6.23 |
| AAATAGAGAAATACAAGTACATACTAAACCAATCTA [XGTACX_site2780] | 6.3 |
| TATAATGTTGATAATAGTACGTATGAGTTCAAAAAA [XGTACX_site988] | 6.69 |
| CAAATCAAAATTAATTAACACACAATTTTAATATTC [CACACA_site8641] | 6.06 |
| TTCTTTGTAGTATATTAACACACAACTGTTTATAAT [CACACA_site9305] | 6.67 |
| AAAGGATATAATACCATACACACATTTATAAAATAA [CACACA_site1931] | 6.79 |
| GTAGAATCAGTATTCACACATAAATGTATCCAAATG [CACACA_site5395] | 6.37 |
| AATTATATACCATGCACACAAATATTCATACAGGAA [CACACA_site4057] | 8.36 |
| TTTTCATTCTTATATAAATATTATTTTATATAAAAT [GTGCAC_negctrl_site674] | 6.41 |
| ATATATGAAAATATATGTACACAACATATAAAATAG [XGTACX_site5132] | 6.63 |
| AAAAATATATATATATTTCTTCTTTGTTAAAATGTA [CACACA_negctrl_site1459] | 6.23 |
| CAAATTTTTAAAAATGCATGTTCATCCATCCCATAT [TGCATGCA_site467] | 6.53 |
| TTTGTATGATCATAAAGTACTAATTTACATTCAGCA [XGTACX_site8596] | 6.47 |
| ATATATATATATAGAAGTACTCTTATATATTTTATA [XGTACX_site1384] | 9.17 |
| GATATGGAATATATGTGTACATATATATATATTATA [XGTACX_site1724] | 6.4 |
| AAAAAAAAAAAAAATACACACACATAAAAAAAAAAA [CACACA_site8555] | 6.47 |
| ATATACTATTAACCACATATGTGTGTTAATTTATAT [GTGCAC_negctrl_site315] | 6.41 |
| TGCTATTTCATATTCTGTACTAAAACAAGATAATAA [XGTACX_site3852] | 6.48 |

| Sequence | gcPBM binding intensity (ln) |
| --- | --- |
| ATATTAATTATAACTTGTACGTAAAAGGAAAACAAT [XGTACX_site3269] | 6.96 |
| TTGAACCCCACTAACACACACACGCACGCTCAGAAA [CACACA_site2983] | 6.97 |
| ATAATAAACATATATGTACACACATATACATATATA [CACACA_site8924] | 6.67 |
| TTTTTAATATTGTATGCATGTCGTAATAAAAAATTT [TGCATGCA_site259] | 6.42 |
| AACACACACATATATATATATATATATATATATATA [GTGCAC_negctrl_site573] | 9.67 |
| TATATACTTATATACTGTACTCATCATCTTTTAAAG [XGTACX_site6099] | 6.53 |
| AAAATATATCAAAACACACTCACATATAATACTTAC [CACACA_site6031] | 6.54 |
| TTTTTTTTTTTTTAAACATGCAAAATATATAATTTT [TGCATGCA_site633] | 6.44 |
| TAATATATCTATAATACACACTATTCTAATCACATA [CACACA_site6731] | 6.49 |
| TAGAAACTATGTAATGCACACCAAAATAAAATTATT [CACACA_site8578] | 9.11 |
| TTTTAAAAAATAAAATATTATTGAAGTAAAATATGA [CACACA_negctrl_site758] | 6.38 |
| TTTTGGATACTTCATTTGTCCTGTTTTTTTTTTTTA [CACACA_negctrl_site399] | 6.11 |
| AAAAAAAAAAAAAAATCACACACAATATGAATTTAT [CACACA_site8100] | 6.4 |
| TATTTTATATACAGTGGTACTTTTTTTTTTTTTTTT [XGTACX_site2475] | 6.51 |
| AAAAAAAAAAAAAAAACACACATTTGAAGAAAAAAA [CACACA_site7389] | 6.75 |
| AATTGCTTCAAAATTAAACACACACTAATAAAAAAA [CACACA_site8855] | 6.85 |
| ACATATATATTATAAGCATGCATGAGAAAATTTTTA [TGCATGCA_site1054] | 7.29 |
| TCCTTAAAAAAACCTTAACACACATAAACTATAATT [CACACA_site9001] | 6.47 |
| TTTTTTTTTAAGTTTGCACACATGGAAGACAAAAAT [CACACA_site2505] | 9.98 |
| ATGAATGAATACGTTTTACACACTTGAATATAATTT [CACACA_site8237] | 6.46 |
| GTATATTGTACCATCACACATGTAAAACATAGATGT [CACACA_site5359] | 6.43 |
| TATTTCACAAAAAAAAAAAAAAAAAAGAAGCAAAAA [CACACA_negctrl_site1040] | 6.13 |

From the supplement of paper PMC11417369
